Laboratory results from PubChem BioAssay (NCI).
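Grown in 96-well plates, cells were treated for 48 hours with each compound at five concentrations. Insufficient inhibition: endpoint recorded as highest concentration tested. The concentration for 50% growth inhibition is given as GI50.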 Not every entry of the source has a single result; some have several. This list holds those alone. An entry can have further records. A record mostly stands for its own series of concentrations, which the source does not state; some values may only mark the edge of a range. Brackets tell where a record comes from. A, B and so on number the origins entry by entry.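 The concentration for full growth arrest is given as TGI.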

Legend:
Experiment in all cases: NCI-60 cell line screen, 48 h
NCI-H226 lung = test system: NCI-H226 lung
NCI-H23 lung = test system: NCI-H23 lung
NCI-H460 lung = test system: NCI-H460 lung
NCI-H522 lung = test system: NCI-H522 lung
NCI/ADR-RES ovarian = test system: NCI/ADR-RES ovarian
OVCAR-3 ovarian = test system: OVCAR-3 ovarian
OVCAR-4 ovarian = test system: OVCAR-4 ovarian
OVCAR-5 ovarian = test system: OVCAR-5 ovarian
OVCAR-8 ovarian = test system: OVCAR-8 ovarian
PC-3 prostate = test system: PC-3 prostate
RPMI-8226 leukemia = test system: RPMI-8226 leukemia
RXF 393 renal = test system: RXF 393 renal
SF-268 CNS = test system: SF-268 CNS
SF-295 CNS = test system: SF-295 CNS
SF-539 CNS = test system: SF-539 CNS
SK-MEL-2 melanoma = test system: SK-MEL-2 melanoma
SK-MEL-28 melanoma = test system: SK-MEL-28 melanoma
SK-MEL-5 melanoma = test system: SK-MEL-5 melanoma
SK-OV-3 ovarian = test system: SK-OV-3 ovarian
SN12C renal = test system: SN12C renal
SNB-19 CNS = test system: SNB-19 CNS
SW-620 colon = test system: SW-620 colon
T-47D breast = test system: T-47D breast
TK-10 renal = test system: TK-10 renal
U251 CNS = test system: U251 CNS
UACC-257 melanoma = test system: UACC-257 melanoma
UACC-62 melanoma = test system: UACC-62 melanoma
UO-31 renal = test system: UO-31 renal

Cc1nc(Nc2ncc(C(=O)Nc3c(C)cccc3Cl)s2)cc(N2CCN(CCO)CC2)n1
GI50 (NCI-H226 lung): 46.4 nM [sample A, 1 test] and 550 nM [sample A, mean of 4 tests] and 3.43 µM [sample B, 1 test] | TGI (NCI-H226 lung): 20 µM [sample A, 1 test] and 21.8 µM [sample A, mean of 4 tests] and 36.7 µM [sample B, 1 test] and > 10 µM [sample C, mean of 2 tests] | TGI (NCI-H23 lung): 20 µM [sample A, 1 test] and 20.8 µM [sample A, mean of 5 tests] and 19.2 µM [sample B, mean of 2 tests] and > 10 µM [sample C, mean of 2 tests] | TGI (NCI-H460 lung): 20 µM [sample A, 1 test] and 25 µM [sample A, mean of 5 tests] and 31.4 µM [sample B, mean of 2 tests] and > 10 µM [sample C, mean of 2 tests] | GI50 (NCI-H522 lung): 115 nM [sample A, 1 test] and 63.8 nM [sample A, mean of 5 tests] and 162 nM [sample B, mean of 2 tests] and < 18.4 nM [sample C, mean of 2 tests] | TGI (NCI-H522 lung): 15 µM [sample A, 1 test] and 8.12 µM [sample A, mean of 5 tests] and 14.5 µM [sample B, mean of 2 tests] and > 10 µM [sample C, mean of 2 tests] | TGI (NCI/ADR-RES ovarian): 20 µM [sample A, 1 test] and 40.7 µM [sample A, mean of 5 tests] and 45.4 µM [sample B, mean of 2 tests] and > 10 µM [sample C, mean of 2 tests] | GI50 (OVCAR-3 ovarian): 174 nM [sample A, 1 test] and 203 nM [sample A, mean of 5 tests] and 745 nM [sample B, mean of 2 tests] and 120 nM [sample C, mean of 2 tests] | TGI (OVCAR-3 ovarian): 20 µM [sample A, 1 test] and 19.2 µM [sample A, mean of 5 tests] and > 61.7 µM [sample B, mean of 2 tests] and > 10 µM [sample C, mean of 2 tests] | GI50 (OVCAR-4 ovarian): 7.06 µM [sample A, 1 test] and 7.59 µM [sample A, mean of 5 tests] and 7.94 µM [sample B, mean of 2 tests] and > 2.72 µM [sample C, mean of 2 tests] | TGI (OVCAR-4 ovarian): 20 µM [sample A, 1 test] and 51.9 µM [sample A, mean of 5 tests] and > 77.3 µM [sample B, mean of 2 tests] and > 10 µM [sample C, mean of 2 tests] | TGI (OVCAR-5 ovarian): 20 µM [sample A, 1 test] and 22.2 µM [sample A, mean of 5 tests] and 47.3 µM [sample B, mean of 2 tests] and > 10 µM [sample C, mean of 2 tests] | TGI (OVCAR-8 ovarian): 508 nM [sample A, 1 test] and 3.62 µM [sample A, mean of 5 tests] and > 77.9 µM [sample B, mean of 2 tests] and > 10 µM [sample C, mean of 2 tests] | GI50 (PC-3 prostate): 2.26 µM [sample A, 1 test] and 184 nM [sample A, mean of 5 tests] and 107 nM [sample B, mean of 2 tests] and 6.81 µM [sample C, mean of 2 tests] | TGI (PC-3 prostate): 20 µM [sample A, 1 test] and 35 µM [sample A, mean of 5 tests] and 58.4 µM [sample B, mean of 2 tests] and > 10 µM [sample C, mean of 2 tests] | GI50 (RPMI-8226 leukemia): 7.38 µM [sample A, 1 test] and 4.86 µM [sample A, mean of 5 tests] and 13.6 µM [sample B, mean of 2 tests] and > 10 µM [sample C, mean of 2 tests] | TGI (RPMI-8226 leukemia): 20 µM [sample A, 1 test] and 36.6 µM [sample A, mean of 5 tests] and 45.5 µM [sample B, mean of 2 tests] and > 10 µM [sample C, mean of 2 tests] | GI50 (RXF 393 renal): 9.03 nM [sample A, 1 test] and 29.7 nM [sample A, mean of 3 tests] and < 10.5 nM [sample B, mean of 2 tests] and 2.92 nM [sample C, mean of 2 tests] | TGI (RXF 393 renal): 96.9 nM [sample A, 1 test] and 1.1 µM [sample A, mean of 3 tests] and 76.7 nM [sample B, mean of 2 tests] and 24.6 nM [sample C, mean of 2 tests] | TGI (SF-268 CNS): 20 µM [sample A, 1 test] and 24.5 µM [sample A, mean of 5 tests] and 25 µM [sample B, mean of 2 tests] and > 10 µM [sample C, mean of 2 tests] | GI50 (SF-295 CNS): 3.32 µM [sample A, 1 test] and 1.05 µM [sample A, mean of 5 tests] and 3.96 µM [sample B, mean of 2 tests] and 257 nM [sample C, mean of 2 tests] | TGI (SF-295 CNS): 16.5 µM [sample A, 1 test] and 10.7 µM [sample A, mean of 5 tests] and 33 µM [sample B, mean of 2 tests] and > 10 µM [sample C, mean of 2 tests] | TGI (SF-539 CNS): 13.7 µM [sample A, 1 test] and 6.15 µM [sample A, mean of 5 tests] and 14.2 µM [sample B, mean of 2 tests] and 2.05 µM [sample C, mean of 2 tests] | GI50 (SK-MEL-2 melanoma): 7.77 µM [sample A, 1 test] and 1.13 µM [sample A, mean of 5 tests] and 13.5 µM [sample B, 1 test] and > 10 µM [sample C, mean of 2 tests] | TGI (SK-MEL-2 melanoma): 20 µM [sample A, 1 test] and 19.9 µM [sample A, mean of 5 tests] and 36.6 µM [sample B, 1 test] and > 10 µM [sample C, mean of 2 tests] | GI50 (SK-MEL-28 melanoma): 9.17 µM [sample A, 1 test] and 6.23 µM [sample A, mean of 5 tests] and 7.35 µM [sample B, mean of 2 tests] and > 6.78 µM [sample C, mean of 2 tests] | GI50 (SK-MEL-5 melanoma): 6.75 µM [sample A, 1 test] and 4.53 µM [sample A, mean of 5 tests] and 10.8 µM [sample B, mean of 2 tests] and > 10 µM [sample C, mean of 2 tests] | TGI (SK-MEL-5 melanoma): 20 µM [sample A, 1 test] and 18.2 µM [sample A, mean of 5 tests] and 23 µM [sample B, mean of 2 tests] and > 10 µM [sample C, mean of 2 tests] | GI50 (SK-OV-3 ovarian): 224 nM [sample A, 1 test] and 38.3 nM [sample A, mean of 5 tests] and 204 nM [sample B, mean of 2 tests] and 77 nM [sample C, mean of 2 tests] | TGI (SK-OV-3 ovarian): 3.34 µM [sample A, 1 test] and 2.24 µM [sample A, mean of 5 tests] and 7.62 µM [sample B, mean of 2 tests] and 3.75 µM [sample C, mean of 2 tests] | GI50 (SN12C renal): 28.5 nM [sample A, 1 test] and 55 nM [sample A, mean of 5 tests] and 15.1 nM [sample B, mean of 2 tests] and 12.8 nM [sample C, mean of 2 tests] | TGI (SN12C renal): 20 µM [sample A, 1 test] and 14.1 µM [sample A, mean of 5 tests] and 48.6 µM [sample B, mean of 2 tests] and > 10 µM [sample C, mean of 2 tests] | TGI (SNB-19 CNS): 20 µM [sample A, 1 test] and 37.8 µM [sample A, mean of 5 tests] and > 90 µM [sample B, mean of 2 tests] and > 10 µM [sample C, mean of 2 tests] | GI50 (SW-620 colon): 8.44 µM [sample A, 1 test] and 9.39 µM [sample A, mean of 5 tests] and 13.3 µM [sample B, mean of 2 tests] and > 10 µM [sample C, mean of 2 tests] | TGI (SW-620 colon): 20 µM [sample A, 1 test] and 24.9 µM [sample A, mean of 5 tests] and 34.6 µM [sample B, mean of 2 tests] and > 10 µM [sample C, mean of 2 tests] | GI50 (T-47D breast): 411 nM [sample A, 1 test] and 185 nM [sample A, mean of 5 tests] and 1.5 µM [sample B, mean of 2 tests] and 95.6 nM [sample C, mean of 2 tests] | TGI (T-47D breast): 20 µM [sample A, 1 test] and 27.6 µM [sample A, mean of 5 tests] and 42.2 µM [sample B, mean of 2 tests] and > 10 µM [sample C, mean of 2 tests] | TGI (TK-10 renal): 72.5 nM [sample A, 1 test] and 34.7 nM [sample A, mean of 5 tests] and 156 nM [sample B, mean of 2 tests] and 109 nM [sample C, mean of 2 tests] | TGI (U251 CNS): 20 µM [sample A, 1 test] and 19.7 µM [sample A, mean of 5 tests] and 21.8 µM [sample B, mean of 2 tests] and > 10 µM [sample C, mean of 2 tests] | TGI (UACC-257 melanoma): 17.4 µM [sample A, 1 test] and 18.9 µM [sample A, mean of 5 tests] and 38.5 µM [sample B, mean of 2 tests] and > 10 µM [sample C, mean of 2 tests] | TGI (UACC-62 melanoma): 20 µM [sample A, 1 test] and 17.1 µM [sample A, mean of 5 tests] and 18.3 µM [sample B, mean of 2 tests] and > 10 µM [sample C, mean of 2 tests] | GI50 (UO-31 renal): 19.7 nM [sample A, 1 test] and 37.7 nM [sample A, mean of 5 tests] and 25.7 nM [sample B, mean of 2 tests] and 7.45 nM [sample C, 1 test] | TGI (UO-31 renal): 17 µM [sample A, 1 test] and 6.82 µM [sample A, mean of 5 tests] and 6.96 µM [sample B, mean of 2 tests] and 554 nM [sample C, 1 test]
